Assay results: ChEMBL document CHEMBL4888484, “Replenishing the malaria drug discovery pipeline: Screening and hit evaluation of the MMV Hit Generation Library 1 (HGL1) against asexual blood stage Plasmodium falciparum ,using a nano luciferase reporter read-out” (2022)
About 540 (0.36%) of roughly 150,000 compounds showed an effect of 50% or more. Some of the results follow.

What follows are molecules tested on Plasmodium falciparum (assay: Primary screen in NF54 nanoGlo assay, in single point, at 2uM, 72h; a lower Z score goes with more inhibition). Details: timepoint 72 hour.
Type: functional, Erythrocyte

Row | SMILES | % Inhibition [%] | Z score
1 | C=CCCCc1nc(-c2ncoc2C)no1 | -8 | 1.49
2 | CC(=O)N1CCCN(C(=O)c2cn(C)c3ccccc23)CC1 | -13 | 1.73
3 | Cc1nc(C)n(C[C@H]2CCCCN2c2cnc3ccccc3n2)n1 | 4 | -0.82
4 | CN(C)Cc1cc(CN2CCCC[C@H]2C(=O)NCC(F)F)no1 | 2 | -0.23
5 | O=C(N1CCOCC1)N1c2ccccc2C[C@H](N2CCOCC2)c2ccccc21 | -16 | 3.06
6 | c1cnn(Cc2ccc(-c3nc(C4CCOCC4)n[nH]3)o2)c1 | -12 | 2.43
7 | Cc1cnc(C(=O)N2CCc3onc(-c4ccc5c(c4)OCO5)c3C2)cn1 | -7 | 1.08
8 | Cc1c(F)cccc1NC(=O)N1CCC(N2CC(F)(F)C[C@H]2COCC2CC2)CC1 | -9 | 1.61
9 | O=C(Nc1nnc(-c2cccs2)[nH]1)c1[nH]nc(C2CC2)c1Cl | -1 | 0.11
10 | CCCc1nc(N2CCN(C(=O)Nc3cccc(C(F)(F)F)c3)CC2)c2c(C)nn(-c3ccccc3)c2n1 | 3 | -0.55
11 | CCc1nnc(CC2CCN(C(=O)c3ccco3)CC2)[nH]1 | -4 | 0.57
12 | COC(=O)c1ncn(Cc2nc(C(C)(C)C)no2)n1 | -9 | 0.83
13 | Cc1noc(-c2ccccc2OC(=O)c2ccccc2)n1 | -10 | 1.68
14 | CN1CCc2c(NC(=O)N3CCOC[C@H]3C3CC3)cccc21 | 7 | -0.88
15 | Cn1c(=O)[nH]c2ncc(-c3cccc(C(N)=O)c3)cc21 | -17 | 1.5
16 | CC(C)(C)c1cc2c(=O)[nH][nH]c(=N)c2c(=O)[nH]1 | -6 | 0.82
17 | O=C1NCCCCCCN(C(=O)Nc2ccccc2)[C@H]2C[C@H](C(=O)N3CCc4ccccc4C3)C[C@@H]12 | -1 | 0.2
18 | CN(C)C[C@H]1CN(C(=O)Nc2cccc(NC(=O)c3ccccc3)c2)CCO1 | -42 | 4.89
19 | Cc1nc(CNc2nccn3nnnc23)[nH]c1C | -3 | 0.32
20 | O=C(c1ccccc1OC1CCC1)N1CCN2CCC1C2 (stereo not given) | -13 | 2.37
21 | O=S(=O)(Cc1ccccc1)N1CC(OCc2ccc(F)cc2)C1 | -7 | 0.62
22 | O=C(O)[C@H]1c2ccoc2CCN1Cc1ccccc1F | -3 | 0.44

Row | SMILES | % Inhibition [%] | Z score
23 | O=C(NCCc1ccc2c(c1)CCO2)N1CC[C@H](N2CC=CC2)C1 | -2 | 0.26
24 | COCCN(C)CCCNCc1cccc(Br)c1 | -11 | 0.95
25 | CC(C)c1cc(=O)[nH]c(-n2nc(C3CC3)cc2NC(=O)Cc2ccc(Cl)cc2)n1 | 74 | -12.5
26 | CNS(=O)(=O)[C@H]1CCN(C(=O)CCC(C)(C)c2ccccc2)C1 | -9 | 1.17
27 | c1ccc2sc(CN3CC[C@@H]4NCCC[C@@H]4C3)cc2c1 | -4 | 0.7
28 | CC(C)Cc1nc(C#N)c(NC[C@@H](c2ccsc2)N(C)C)o1 | -8 | 1
29 | Cc1cccnc1NCCn1ccnc1-c1ccncc1 | 10 | -1.39
30 | O=S(=O)(Oc1ccc(-n2ccnc2)cc1)c1cncc(Cl)c1 | -8 | 1.08
31 | CC(C)(C)n1ncn(Cc2nnnn2-c2ccccc2)c1=O | -1 | 0.11
32 | O=C(NCc1ccccc1)[C@@H]1COC2(CCN(C(=O)c3ccc(Cl)cc3)CC2)N1C(=O)c1cccc(F)c1 | 1 | -0.13
33 | CNC(=O)[C@@H]1CN(Cc2ccc(-c3c(F)cccc3F)o2)CCO1 | -9 | 1.32
34 | Nc1c(Oc2ccc(Cl)cc2)ccc2ncccc12 | 12 | -1.06
35 | CCOc1cc(N2CC(C)(C)[C@H]2c2ccncc2)ncn1 | -9 | 1.12
36 | COCC(=O)NC1CN(C(=O)[C@H]2C3CCC(CC3)[C@@H]2C(F)(F)F)C1 | -8 | 1.27
37 | Cc1cc(CNS(=O)(=O)c2ccc(Br)cc2C)on1 | -4 | 0.59
38 | COC(=O)c1ncccc1OCc1cccc(C#N)c1 | -20 | 1.65
39 | COC1(C)CN(c2nc3ccccc3s2)C1 | -4 | 0.4
40 | O=C1CN(Cc2noc(-c3ccsc3)n2)C2CCCCC2N1 (stereo not given) | -8 | 0.97
41 | O=C1C[C@H](Cc2ccc(F)cc2)C(=O)N1CC1(O)CCCC1 | -7 | 0.69
42 | Cn1cccc1-c1cc2n(n1)CCC(=O)N2CCCC(=O)NCc1cccc(Cl)c1 | -3 | 0.56
43 | C=CCN(C)C(=O)c1cncn1-c1ccc(-c2cc(C(F)(F)F)cc(C(F)(F)F)c2)cc1 | 15 | -1.5
44 | COCCN(CCC(=O)N1CCN(C)CC1)C(=O)c1cc(-c2ccccc2OC)on1 | -6 | 0.92

Row | SMILES | % Inhibition [%] | Z score
45 | Cc1nnc(NC(=O)N2Cc3cc(Br)ccc3C[C@@H]2C)s1 | -3 | 0.49
46 | CCN1CCN(C(=O)[C@H]2Cc3ccc(cc3)OCC(=O)N[C@@H](CC(C)C)C(=O)N(CCOC)CC(=O)N2)CC1(C)C | 0 | 0.03
47 | CC(OC(=O)CCC1NC(=O)NC1=O)c1ccc(Cl)cc1Cl (stereo not given) | 33 | -3.77
48 | CCCCCNC(=O)CNS(=O)(=O)c1ccccc1N | -3 | 0.28
49 | COC(=O)c1cccc(CN(Cc2cccn2Cc2ccc(C(F)(F)F)cc2)[C@@H](C)C(C)C)c1 | -22 | 2.44
50 | COCCc1noc([C@H](C)NC2CCN(c3ccccc3C)CC2)n1 | -2 | 0.22
51 | CC(C1CC1)N(C)S(=O)(=O)N1CCCC1c1ncccn1 (stereo not given) | -2 | 0.39
52 | COc1ccc(CN2CCCN([C@H]3COC[C@@H]3O)CC2)cn1 | 0 | 0.06
53 | CCOC(=O)[C@@]1(CCOc2ccccc2)CCCN(C2CCN(CC)CC2)C1 | 3 | -0.4
54 | Cn1cc(-c2cc3n(n2)CCC(=O)N3CC(=O)NC2CCCCCCC2)c2ccccc21 | -3 | 0.6
55 | CN1CCCN(C(=O)c2csc(NC(=O)c3ccc(Cl)cc3Cl)n2)CC1 | -16 | 1.51
56 | Cc1cc(N2CCCC2)nc(CNC(=O)c2ccco2)n1 | -12 | 1.87
57 | Cc1ccc(NS(=O)(=O)c2cc(-c3cnc(C4CC4)o3)ccc2C)c(Br)c1 | -5 | 0.93
58 | CC[C@@]12CCCN1C(=O)N(Cc1ccc(C)cc1OC)C2=O | -7 | 0.66
59 | O=S(=O)(C1CC1)N1CC[C@H](n2ccnn2)C1 | -2 | 0.32
60 | CC[C@H]1CCCN(C(=O)c2cc(S(=O)(=O)N(C)C)oc2C)C1 | -5 | 0.52
61 | CC1CCCCC1OCC(=O)Nc1cc(C(=O)O)cs1 (stereo not given) | 7 | -0.86
62 | CN(Cc1nccs1)C[C@](C)(O)c1ccc(S(C)(=O)=O)cc1 | -1 | 0.06
63 | Cc1nc(C)c(C)c(N2CCC(Oc3ccc4ccccc4c3)(C(=O)O)CC2)n1 | 0 | -0.03
64 | COc1ccc(C(=O)N2CCC[C@H](C(=O)NCc3ccccc3Cl)C2)c2ccccc12 | -14 | 1.57
65 | COc1cccc2[nH]cc(CCNC(=O)N3CC[C@@H](C(F)(F)F)C(C)(C)C3)c12 | -2 | 0.22
66 | CCCOCCNC(=O)c1c(C)noc1-c1ccco1 | -4 | 0.65

Row | SMILES | % Inhibition [%] | Z score
67 | CCn1ncnc1CNCCc1cnn(-c2ccccc2)c1 | -9 | 1.25
68 | CC1(C)Cc2nc(N3CCOCC3)ncc2[C@@H](NCc2cccc(O)c2)C1 | -18 | 1.54
69 | c1cnc(N2CCOCC2)c(CNC(=NC2CC2)NC2CCCC2)c1 | -1 | 0.1
70 | O=C1CCc2cc(S(=O)(=O)N3CC[C@@H](c4ccccc4)S(=O)(=O)CC3)ccc2N1 | -10 | 1.72
71 | COc1ncccc1CNC[C@H]1COCc2nc3ccccc3n21 | 8 | -0.96
72 | COCCN(Cc1csc(-c2ccco2)n1)[C@@H](C)C1CC1 | 4 | -0.83
73 | Cc1nn(C)c(C)c1OC(=O)c1cc(OCC(F)F)ccn1 | -10 | 1.64
74 | NC(=O)C(c1ccccc1)N1CCCCC1Cn1cccn1 (stereo not given) | -7 | 1.31
75 | Cc1cccc(C)c1OCC(=O)NCC#N | 3 | -0.57
76 | COc1cc2nc(N3CCc4ccccc4C3)cc(C)c2c(OC)c1OC | 3 | -0.52
77 | CCN1CCN(C(=O)c2snc(-c3ccc(C)cc3)c2N)CC1 | 4 | -0.45
78 | O=C(COc1ccccc1)NCC(=O)N[C@H]1CCCc2ccccc21 | -3 | 0.6
79 | CN(C(=O)COc1ccc(CCO)cc1-n1nc2ccccc2n1)C1CCCCC1 | -9 | 1.58
80 | CN(C)[C@H]1CCN(c2nc3cc(Br)ccc3[nH]2)C1 | -4 | 0.89
81 | Cc1nn(C)c(Cl)c1CN(C)C(=O)C12CCCN1CCC2 | -2 | 0.21
82 | CC[C@H](C)[C@H](NCc1ccnn1C)C(=O)OC(C)(C)C | -6 | 0.74
83 | CC(C)(C(=O)N[C@H]1C[C@@](C)(O)C1)C(F)F | 2 | -0.28
84 | Oc1nc(-c2ccccc2)n(-c2ccc(Cl)cc2)n1 | -1 | 0.12
85 | CC(O)CNC(c1cnn(C2CCC(C)CC2)c1)C(F)(F)F (stereo not given) | -16 | 1.79
